Results on 42 molecules are retold here after ChEMBL document CHEMBL4888484, “Replenishing the malaria drug discovery pipeline: Screening and hit evaluation of the MMV Hit Generation Library 1 (HGL1) against asexual blood stage Plasmodium falciparum ,using a nano luciferase reporter read-out” (2022).

The campaign covered roughly 150,000 compounds. About 540 (0.36%) showed an effect of 50% or more. Some of the results follow.

The test has as its system Plasmodium falciparum. Nature of the test: Primary screen in NF54 nanoGlo assay, in single point, at 2uM, 72h; a lower Z score goes with more inhibition. As to conditions: timepoint 72 hour. It counts as functional, Erythrocyte.
On to `O=C(Nc1nccs1)N1CCN2C(=O)NC[C@H]2C1`, for which the “% Inhibition” value is given as -12% and the Z score stood at 1.2.

In the case of `C[C@](O)(CNc1nc(C2CC2)nc2c1CCC2)CN1CCOCC1`, the “% Inhibition” value was -16% and the Z score is 1.41.

Consider `Clc1cccc(Cl)c1COc1ccncc1`, for which the “% Inhibition” value is given as -8% and the Z score was determined as 0.98.

In the case of `Nc1nnc(CC(=O)N2CCO[C@H]3CCCC[C@@H]32)s1`, the “% Inhibition” value is given as -1% and the Z score is given as 0.23.

As for `COc1nc(-c2cccc(C(=O)NCCCn3ccnn3)c2)nn1C`, the “% Inhibition” value was -1% and the Z score is listed as 0.16.

As for `O=C(NCc1cc2ccc(F)cc2[nH]c1=O)c1cnn[nH]1`, the “% Inhibition” value is given as -2% and the Z score was 0.3.

On to `CC[C@@H](C(=O)Nc1cc(C)on1)N1CCC(O)CC1`, for which the “% Inhibition” value stood at 0% and the Z score is reported as -0.06.

On to `CC(C)OC(=O)Nc1nn(C)cc1S(=O)(=O)N1CCCC1`, for which the “% Inhibition” value is 1% and the Z score is given as -0.14.

Regarding `CC(C)CN(C(=O)CN1CCCCC1=O)C1CC1`, the “% Inhibition” value is -10% and the Z score came to 1.15.

`O=C(c1ccc2[nH]ccc2c1)N1CC[C@H](N2CCOC2=O)C1`: the “% Inhibition” value is on record as 4% and the Z score was -0.68.

In the case of `OCCn1nc(Cc2c(Cl)cccc2Cl)nc1C1CCNCC1`, the “% Inhibition” value is given as -6% and the Z score is 0.78.

`COc1ccc(Cl)cc1S(=O)(=O)c1cnc(N2CCC(N3CCCCC3)CC2)nc1N`: the “% Inhibition” value is on record as 6% and the Z score is listed as -0.95.

For `Cc1ccnc(-n2nccc2NC(=O)N[C@H]2CCCOc3cc(F)ccc32)c1`, the “% Inhibition” value is -15% and the Z score was determined as 1.49.

Consider `CCNC(=O)N1CCN(c2nc(C)nc3c2c(C)nn3-c2ccc(C)cc2)CC1`, for which the “% Inhibition” value is given as -18% and the Z score is reported as 1.92.

For the molecule `CC(C)S(=O)(=O)N(C)CC(=O)N(C)Cc1ccc(F)cc1`, the “% Inhibition” value is on record as -11% and the Z score worked out at 1.5.

In the case of `COCc1noc(CNC(=O)c2c(C)ncnc2C)n1`, the “% Inhibition” value is recorded as -13% and the Z score is 2.29.

As for `CC(=O)NC1CCC(NCCOc2ccccc2)CC1` (centres undefined), the “% Inhibition” value is -11% and the Z score is recorded as 1.19.

On to `C=C(C)CN(CC)C(=O)C(=O)Nc1ccc(OC)cc1Cl`, for which the “% Inhibition” value is -6% and the Z score worked out at 0.83.

Turning to `O=C(c1nn(Cc2ccccc2)c(=O)c2ccccc12)N1CCC[C@H]1c1ccc2c(c1)OCCO2`, the “% Inhibition” value was -27% and the Z score turned out to be 3.21.

For the molecule `C[C@H](C(=O)N1Cc2cn[nH]c2C(C)(C)C1)C1CC1`, the “% Inhibition” value is -19% and the Z score was determined as 2.58.

As to `CN(CCN1CCCC1)c1cc(C(=O)N2CCOCC2)ccn1`, the “% Inhibition” value came out at 1% and the Z score is given as -0.29.

As for `O=C(NC[C@H]1COc2ccccc2O1)c1ccc(O)nc1`, the “% Inhibition” value is -5% and the Z score stood at 0.72.

Consider `COc1cc2c(cc1OC)C1(CCOCC1)CN(CC[C@@H](c1ccccc1)c1ccccc1O)C2`, for which the “% Inhibition” value was -14% and the Z score was found to be 2.15.

Turning to `CCN(CC(=O)Nc1ccc2c(c1)OCCO2)CC(=O)Nc1ccc2c(c1)OC1(CCCCC1)O2`, the “% Inhibition” value was -29% and the Z score is 4.22.

On to `O=C(N[C@H]1C[C@@H]2C(=O)N[C@H]3CCN(C(=O)c4ccccc4)[C@@H]3C(=O)N2C1)c1ccc(F)c(Cl)c1`, for which the “% Inhibition” value came to 24% and the Z score is -2.66.

Take `Cc1nc[nH]c1CN1C[C@H]2CC[C@@H](C1)N(Cc1ccc(CC(C)C)s1)C2`: the “% Inhibition” value is reported as -3% and the Z score is on record as 0.53.

For the molecule `CCc1n[nH]c(=O)c(-c2nc(C3CCOCC3)cs2)c1CC`, the “% Inhibition” value is given as -1% and the Z score was 0.18.

As for `O=S(=O)(CCc1noc(-c2ccsc2)n1)c1ccccc1`, the “% Inhibition” value was -16% and the Z score worked out at 1.51.

In the case of `COc1ccc(NC(=O)N2CCC[C@@H]2CN2CCCC2)cc1C`, the “% Inhibition” value is on record as -4% and the Z score stood at 0.57.

In the case of `CCn1c(-c2cc(NC(=O)c3ccco3)[nH]n2)cc2cc(OC)ccc21`, the “% Inhibition” value came to 2% and the Z score was -0.35.

With `O=C(NCc1ccccc1)[C@]1(F)CCN(S(=O)(=O)c2cccc(F)c2)C1`, the “% Inhibition” value was found to be 2% and the Z score was -0.24.

Turning to `CCCCNCCCOc1ccc(Cl)c(C)c1`, the “% Inhibition” value is on record as 9% and the Z score is given as -1.7.

As for `O=C1CCC2(CCN(Cc3ccc(F)cc3)CC2)CN1[C@H]1CC[C@H](O)CC1`, the “% Inhibition” value was -5% and the Z score stood at 0.99.

For the molecule `COc1cc2c(cc1OC)CN(C(=O)COc1cccc3c1CCC3=O)CC2`, the “% Inhibition” value is on record as -8% and the Z score is 1.04.

Consider `Cc1ccc(F)cc1NC(=O)NC1CCN(C[C@H]2CCOC2)CC1`, for which the “% Inhibition” value is listed as -8% and the Z score is 1.45.

In the case of `CN(Cc1ccccc1)c1nc2ncn(CC(=O)Nc3ccccc3)c(=O)c2s1`, the “% Inhibition” value is recorded as -9% and the Z score is recorded as 1.27.

Take `CCNC(=O)c1c(NC(=O)c2cc(-c3ccc4c(c3)OCCO4)on2)sc2c1CCCC2`: the “% Inhibition” value was found to be 15% and the Z score is on record as -1.72.

Take `CCNc1cc(CNC(=O)Nc2ccsc2C)ccn1`: the “% Inhibition” value is given as -5% and the Z score is recorded as 0.88.

As for `CC(C)c1nc(CNC(=O)C[C@H]2C(=O)NCCN2Cc2ccccn2)no1`, the “% Inhibition” value is recorded as 2% and the Z score is given as -0.33.

As to `Cn1ccnc1CCNC(=O)Cc1csc(-c2cccnc2)n1`, the “% Inhibition” value was -8% and the Z score was 0.85.

Turning to `CCn1nc(C)n2cc(S(=O)(=O)N3CCC(Cc4ccccc4)CC3)cc2c1=O`, the “% Inhibition” value was -2% and the Z score came to 0.26.

As for `CN1CCN(Cc2cnc(-c3ccccc3)s2)C[C@@H]1CCO`, the “% Inhibition” value was -12% and the Z score is recorded as 1.4.

Usually % Inhibition stands for the drop in the measured response relative to a control, in per cent.
